PubChem BioAssay (NCI)
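Dose response: 5 concentrations. Exposure: 48 h. Format: 96-well plates. Endpoint: linear interpolation; highest concentration if not reached. GI50 marks 50% less growth. TGI: total growth inhibition.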

System: NCI-H322M lung
Assay: NCI-60 cell line screen, 48 h

SMILES	GI50	TGI
CC(Nc1ncnc2ccc(-c3cnc(N)nc3)cc12)c1ccccc1 (centres undefined)	2.99 µM	14.4 µM
Cc1[nH]nc2ccc(-c3nc4cnc(N5CCN(C)CC5)cn4c3Nc3ccc(F)cc3Br)cc12	2.72 µM	10.9 µM
